Experimental findings from PubChem BioAssay AID1508642 (National Center for Advancing Translational Sciences (NCATS), 2021) are described below.

The campaign covered roughly 43,000 compounds. About 200 (0.47%) were called active. Roughly 12% stayed inconclusive and do not appear here. The call rests on the fitted dose curve; in most records, active means well fitted cell-killing curve with a large enough effect; inconclusive means small, poorly fitted or top-dose-only effect, or effect the other way; inactive means flat fitted curve, though single readings scatter. This is one part of the list.
On the % scale 0 is the no-effect control and ±100 the full control effect.

The assay can be described thus: Cell viability qHTS assay in S16 Pmp22-F2sN cells. Further: nearly all actives have a fitted effect of over 65% in size. The following applies: S16 Pmp22-F2sN Schwann cells (luciferase reporters placed in the Pmp22 gene) viability, CellTiter-Glo, 24 h; series mostly up to 57.5 µM; activity change, negative = cytotoxicity: at the top concentration. The essentials: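 Rat S16 Schwann reporter line, 24 h treatment with library compounds delivered at 23 nL per well. Cell viability by CellTiter-Glo luminescence.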
For `CCOC(=O)c1c(C)n(S(=O)(=O)c2ccc(C)cc2C)c2ccc(NS(=O)(=O)c3ccc(C)cc3C)cc12`, the “activity change, negative = cytotoxicity” value was inactive: -0.757%.
As for `CC(C)Cn1cc(NC(=O)Nc2cccc(C(F)(F)F)c2)c2ccccc2c1=O`, the figure is inactive: -17.2%; as for `CC(=O)N1CCc2cc(S(=O)(=O)NC(CC(C)C)C(=O)Nc3ccc(C(C)C)cc3)ccc21` (stereo not given), inactive: -6.72%.
As for `CCOc1ccc(CNC(=O)c2cccc(NC(=O)N3CCSc4ncccc43)c2)cc1`, the figure is inactive: -11.9%; as for `CCn1c(C(=O)N2CCC(C(=O)N3CCN(c4cc(C)ccc4C)CC3)CC2)cc2sccc21`, inactive: -10%.
Under `CC(=O)N1c2ccc(S(=O)(=O)N3CCCCCC3)cc2CC1C(=O)NC(C)C` (stereo not given) stands inactive: -13.3%; under `CCOC(=O)c1c(C)sc(-c2c(-c3ccc4c(c3)OCCO4)[nH]c3c2c(=O)n(C)c(=O)n3C)c1O`, inactive: 2.92%.
`Cc1cc(-c2ccc(C)c(S(=O)(=O)N3CCC(C)CC3)c2)on1`: the “activity change, negative = cytotoxicity” value was inactive: -20.9%.
`CCOC(=O)N1CCc2c(sc3c2c(=O)n(Cc2ccccc2)c(=O)n3Cc2cc(C)ccc2C)C1`: the “activity change, negative = cytotoxicity” value was inactive: 6.91%.
Under `Cc1sc2ncn(CC(=O)Nc3ccc(F)cc3F)c(=O)c2c1S(=O)(=O)N1CCC(C)CC1` stands inactive: -0.0049%.
As for `CCOc1ccccc1NC(=O)N1CCC(n2c(C)nc3cccnc32)CC1`, the figure is inactive: 3.58%.
As for `COc1ccc(NC(=O)c2cc3nc(-c4ccc(Cl)c(Cl)c4)cc(C(F)(F)F)n3n2)c(OC)c1`, the figure is inactive: 13.3%.
For the molecule `COc1cccc(N2CCN(S(=O)(=O)c3cn(C)c(C)n3)CC2)c1`, the “activity change, negative = cytotoxicity” value was inactive: -9.34%.
With `Cc1c(-c2nnc(SCC(=O)Nc3ccccc3F)o2)nnn1-c1ccc(F)cc1`, the “activity change, negative = cytotoxicity” value was inactive: -2.11%.
As for `COc1ccc(CNC(=O)CCc2cn(C)c3ccccc23)cc1`, the figure is inactive: -2.46%; as for `COc1ccc(C(=O)NC2CC(=O)N(c3ccc4c(c3)OCCO4)C2)cc1` (stereo not given), inactive: 4.41%; as for `CCOC(=O)c1ccc(NC(=O)C2CCCN(c3ccc(Sc4ccc(C)cc4)nn3)C2)cc1` (stereo not given), inactive: 4.71%.
With `CC(C)c1nc2ccc(C(=O)NCCCN3CCN(c4ccccc4F)CC3)cc2o1`, the “activity change, negative = cytotoxicity” value was inactive: -5.7%.
Under `COC(=O)c1ccc(-n2nnc(-c3nc(-c4ccc5c(c4)OCO5)no3)c2C)cc1` stands inactive: 3.7%; under `CCN(C(=O)CN(C)S(=O)(=O)c1ccc2c(c1)c(=O)n(C)c(=O)n2C)c1ccc(OC)cc1`, inactive: -7.58%.
As for `Cc1cc(Br)ccc1NC(=O)CCS(=O)(=O)c1cccc2nsnc12`, the figure is inactive: -2.84%.
For `COc1ccccc1CNC(=O)C(CC(C)C)NS(=O)(=O)c1ccc2c(c1)oc(=O)n2C` (stereo not given), the “activity change, negative = cytotoxicity” value is inactive: 1.89%.
Under `Cn1c(=NC(=O)c2ccc3c(c2)OCCO3)sc2cc(S(C)(=O)=O)ccc21` stands inactive: 5.96%; under `CCC(=O)N1CCc2cc(S(=O)(=O)NCCC(=O)NCc3ccccc3Cl)ccc21`, inactive: -1.36%.
As for `Cc1ccccc1-c1noc(C(C)NC(=O)c2ccco2)n1` (stereo not given), the figure is inactive: -15.6%.
Turning to `Cc1ccc(C(C)C)c(OCC(=O)Nc2ccc(S(=O)(=O)Nc3onc(C)c3C)cc2)c1`, the “activity change, negative = cytotoxicity” value is inactive: 6.98%.
As for `N#Cc1ccc(CN2C(=O)c3ccccc3Sc3ccc(C(=O)OCc4ccco4)cc32)cc1`, the figure is inactive: 7.68%; as for `CCOc1ccc2nc(NC(=O)CS(=O)(=O)c3ccc(Cl)cc3)sc2c1`, inactive: -2.54%; as for `Cc1ccc(C2c3c(oc4ccccc4c3=O)C(=O)N2c2ccc(C)cn2)cc1` (stereo not given), inactive: 8.85%.
Under `CCCCN(C)C(=O)C1CCCN(c2ncnc3onc(-c4ccc(F)cc4)c23)C1` (stereo not given) stands inactive: -5.61%; under `Cc1cccc(N2CCN(C(=O)CSCc3ccc(F)cc3)CC2)c1C`, inactive: -16.1%; under `CCN(CC)S(=O)(=O)c1ccc2c(c1)c(=O)c(C(=O)NCc1ccccc1)cn2C`, inactive: -0.907%.
Consider `Cc1ccc(NC(=O)Nc2nnc(N3CCCC3)s2)c(C)c1`, for which the “activity change, negative = cytotoxicity” value is inactive: 1.93%.
Turning to `COc1ccc(-c2cn3nc(N4CCC(C(=O)Nc5cccc(Cl)c5)CC4)sc3n2)cc1`, the “activity change, negative = cytotoxicity” value was inactive: 5.25%.
As to `Cc1ccc(CNC(=O)Cc2coc3cc(C)cc(C)c23)cc1`, the “activity change, negative = cytotoxicity” value was inactive: 4.7%.
In the case of `CC(=O)N1CCCc2cc(S(=O)(=O)N3CCC(C(=O)NCc4ccc(N(C)C)cc4)CC3)ccc21`, the “activity change, negative = cytotoxicity” value is inactive: -26.6%.
As for `COc1cc(CN(CC2CCCO2)C(=O)c2ccc(F)cc2)cc(OC)c1OC` (stereo not given), the figure is inactive: 4.79%; as for `CCOc1cccc(CC(=O)Nc2ccc3nc(N4CCCCC4)cc(C)c3c2)c1OCC`, inactive: 10.5%.
As for `COc1ccccc1CNC(=O)c1ccc(CS(=O)(=O)c2ccccc2C)o1`, the figure is inactive: 11.4%; as for `COc1ccc(CNC(=O)CCC(=O)N2CC3CCCN3c3ccccc32)cc1` (stereo not given), inactive: -1.91%; as for `CN(C)c1ccc(CNC(=O)c2cc3cc(S(=O)(=O)N4CCCCC4)ccc3n2C)cc1`, inactive: -11.1%.
For the molecule `O=C(CN1C(=O)C2CCCCN2c2ccc(C(=O)N3CCCC3)cc21)NCc1cccc(Cl)c1` (stereo not given), the “activity change, negative = cytotoxicity” value is inactive: 5.21%.
As for `Cc1ccc(-c2c(C(=O)Nc3ccc(F)c(F)c3)oc(=O)c3ccccc23)cc1`, the “activity change, negative = cytotoxicity” value is inactive: -0.24%.
Under `CCn1cc(C(=O)NCc2ccc(C)cc2)c(=O)c2cc(S(=O)(=O)N3CCC(C)CC3)ccc21` stands inactive: 3.53%.
Under `CCOc1ccc(CNS(=O)(=O)c2c(C(=O)N3CCCCCC3)c(C)n(C)c2C)cc1OC` stands inactive: -4.75%; under `Cc1ccc(Cl)c2sc(NC(=O)CS(=O)(=O)c3ccc(Cl)cc3)nc12`, inactive: -3.9%; under `Cc1oc(C)c2c(=O)cc(-c3ccc4c(c3)OCO4)cc(OC(=O)c3ccccc3Br)c12`, inactive: 0.158%.
`COc1ccc(NC(=O)C2CCN(S(=O)(=O)c3ccc4c(c3)CCCC(=O)N4)CC2)cc1Cl`: the “activity change, negative = cytotoxicity” value is inactive: 25.8%.
Under `COc1ccc(NC(=O)c2nnn(Cc3nc(-c4cc(Br)ccc4OC)oc3C)c2C)cc1` stands inactive: 0.493%; under `CCOc1cccc(C2c3c(oc4ccc(F)cc4c3=O)C(=O)N2CCc2ccc(OC)cc2)c1` (stereo not given), inactive: 4.42%; under `COc1ccc(Nc2cc(C(=O)NC3CCCC3)c3ccccc3n2)c(OC)c1`, inactive: 20%.
As for `Cc1ccc(CN(C(=O)Nc2cccc(Cl)c2)c2ccccn2)cc1`, the figure is inactive: -14.4%.
`CCNC(=O)Cn1c(-c2cccs2)cc2ccccc21`: the “activity change, negative = cytotoxicity” value is inactive: -16.5%.
Under `CCn1ccc2cc(S(=O)(=O)N3CCC(C(=O)NCc4cccc(C)c4)CC3)ccc21` stands inactive: 6.83%; under `Cc1ccc(C)c(Cn2c(=O)n(CCCCC(=O)NCc3ccccc3Cl)c(=O)c3ccccc32)c1`, inactive: 6.99%.
`COc1ccccc1N1CCN(c2csc3ccc(Cl)cc3c2=O)CC1`: the “activity change, negative = cytotoxicity” value was inactive: 9.36%.
Under `CCOc1ccccc1NC(=O)Cn1ccn(-c2ccccc2)c(=O)c1=O` stands inactive: -1.21%; under `CCCCNC(=O)c1cc(Sc2ccc(OCC)cc2)nc2ccccc12`, inactive: 4.14%; under `COc1ccc(S(=O)(=O)N2CCN(c3ccccc3OC)CC2)cc1-c1noc(C)n1`, inactive: -2.84%.
As for `Cc1ccc(Cn2c(-c3ccccc3)nc3ccccc32)cc1`, the figure is inactive: 1.71%.
